Measurements as given in publication PMC4336329 (PLoS ONE, 2015).
Hit rate of the full screen: of about 310,000 compounds, about 2,200 (0.71%) showed an effect of 50% or more. Effects have a minus sign here. The list shows a part of the results.

Target: human ether-à-go-go-related gene (hERG) potassium channel (human, UniProt Q12809)
Assay: primary screen, population patch clamp on CHO cells stably expressing hERG

human ether-à-go-go-related gene (hERG) potassium channel, sequence (Q12809 whole entry, looked up): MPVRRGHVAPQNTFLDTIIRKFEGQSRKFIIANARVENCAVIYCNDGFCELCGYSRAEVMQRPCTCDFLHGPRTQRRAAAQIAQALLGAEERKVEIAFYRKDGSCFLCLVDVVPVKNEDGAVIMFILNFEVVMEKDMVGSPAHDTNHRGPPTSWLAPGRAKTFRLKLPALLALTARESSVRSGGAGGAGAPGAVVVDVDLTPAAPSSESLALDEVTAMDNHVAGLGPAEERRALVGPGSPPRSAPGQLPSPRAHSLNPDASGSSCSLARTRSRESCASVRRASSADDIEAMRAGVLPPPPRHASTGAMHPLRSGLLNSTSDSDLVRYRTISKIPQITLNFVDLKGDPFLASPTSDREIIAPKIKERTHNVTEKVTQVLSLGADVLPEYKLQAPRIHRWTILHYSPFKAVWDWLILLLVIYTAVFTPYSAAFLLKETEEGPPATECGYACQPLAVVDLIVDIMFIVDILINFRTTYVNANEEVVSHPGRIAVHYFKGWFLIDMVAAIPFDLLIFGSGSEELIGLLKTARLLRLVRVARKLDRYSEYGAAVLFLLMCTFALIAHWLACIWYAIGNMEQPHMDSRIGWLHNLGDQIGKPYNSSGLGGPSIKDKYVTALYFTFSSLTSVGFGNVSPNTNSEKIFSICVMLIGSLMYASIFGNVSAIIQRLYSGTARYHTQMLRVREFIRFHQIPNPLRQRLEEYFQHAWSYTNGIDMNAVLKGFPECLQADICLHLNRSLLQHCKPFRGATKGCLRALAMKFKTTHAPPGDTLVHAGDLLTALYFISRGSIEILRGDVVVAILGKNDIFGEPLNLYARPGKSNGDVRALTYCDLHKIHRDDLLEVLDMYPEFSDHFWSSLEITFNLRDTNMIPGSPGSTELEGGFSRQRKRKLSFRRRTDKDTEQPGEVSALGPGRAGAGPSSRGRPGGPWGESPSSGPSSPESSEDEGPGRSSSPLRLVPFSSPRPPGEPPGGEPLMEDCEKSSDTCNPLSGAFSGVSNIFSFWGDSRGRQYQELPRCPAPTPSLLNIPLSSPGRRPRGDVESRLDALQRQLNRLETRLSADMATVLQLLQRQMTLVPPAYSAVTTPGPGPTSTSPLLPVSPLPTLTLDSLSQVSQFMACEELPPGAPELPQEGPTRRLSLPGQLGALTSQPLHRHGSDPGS

**Q.** For `O=C(CCc1ccccc1)N1CCN(c2ccc(Cl)cc2)CC1`, which “hERG current change (%, negative = inhibition) at 1uM” value is on record?
**A.** Its value is -13.9%.

**Q.** For `O=S(=O)(Nc1ncccn1)c1ccc(NC(=S)NCc2ccco2)cc1`, which “hERG current change (%, negative = inhibition) at 1uM” value is on record?
**A.** The value was 8.76%.

**Q.** How did the “hERG current change (%, negative = inhibition) at 1uM” value turn out when `COc1cc(/C=C2\SC(=N)N(c3ccc4c(c3)OCO4)C2=O)cc(OC)c1O` was run?
**A.** The value was 3.82%.

**Q.** With `CCC(=O)NC(c1ccco1)c1cc(Cl)c2cccnc2c1OC` (stereo not drawn) as the compound, how does the “hERG current change (%, negative = inhibition) at 1uM” value read?
**A.** Its value is -0.832%.

**Q.** Which “hERG current change (%, negative = inhibition) at 1uM” value does the source give for `C=CCOc1ccccc1OCC(O)CNC(C)C.Cl` (stereo not drawn) here?
**A.** Its value is 2.92%.

**Q.** `O=C(NCc1ccccn1)c1ccc(=O)oc1` was tested. Which “hERG current change (%, negative = inhibition) at 1uM” value did it give?
**A.** Its value is 1.12%.

**Q.** With `O=C(c1nc2ccccn2c1CN1CCCC(c2nc3ccccc3o2)C1)N1CCCC1` (stereo not drawn) as the compound, how does the “hERG current change (%, negative = inhibition) at 1uM” value read?
**A.** The value was 20.4%.

**Q.** `CC(=O)N1CCN(c2ccc(NCc3cccs3)cc2)CC1` was tested. Which “hERG current change (%, negative = inhibition) at 1uM” value did it give?
**A.** The value was 16.8%.

**Q.** For `CSc1ccc(/C=N\NC(=O)CNc2ccc(C)cc2)cc1`, which “hERG current change (%, negative = inhibition) at 1uM” value is on record?
**A.** Its value is 0.15%.

**Q.** `Cc1ccc(-n2c(C)nc3c(cnn3-c3ccc(F)cc3)c2=O)cc1C` was tested. Which “hERG current change (%, negative = inhibition) at 1uM” value did it give?
**A.** Its value is 16.7%.

**Q.** `Cc1cc(C)cc(NC(=O)Nc2ccc(Cl)cn2)c1` was tested. Which “hERG current change (%, negative = inhibition) at 1uM” value did it give?
**A.** The value was 16.3%.

**Q.** For `O=C(N/N=C/c1ccoc1)c1cccc(OC(F)(F)C(F)F)c1`, which “hERG current change (%, negative = inhibition) at 1uM” value is on record?
**A.** The value was 2.32%.

**Q.** How did the “hERG current change (%, negative = inhibition) at 1uM” value turn out when `Cc1cccc(NC(=O)c2ccc(C(=O)c3ccccc3)o2)c1` was run?
**A.** Its value is 9.23%.

**Q.** For `CCOc1ccc(S(=O)(=O)NCCC(=O)N(C)Cc2ccc(C)o2)cc1`, which “hERG current change (%, negative = inhibition) at 1uM” value is on record?
**A.** Its value is 6.62%.

**Q.** How did the “hERG current change (%, negative = inhibition) at 1uM” value turn out when `COc1nc(Nc2ccc(O)cc2)nc(OC(C(F)(F)F)C(F)(F)F)n1` was run?
**A.** Its value is -2.68%.

**Q.** Which “hERG current change (%, negative = inhibition) at 1uM” value does the source give for `C=C1CCC[C@]2(C)C[C@H]3OC(=O)C(CN(C)CC(OC)OC)[C@H]3CC12` (stereo partly drawn) here?
**A.** The value was 20.3%.

**Q.** How did the “hERG current change (%, negative = inhibition) at 1uM” value turn out when `O=C(CN(c1ccc2c(c1)OCCO2)S(=O)(=O)c1ccccc1)NCC1CCCO1` (stereo not drawn) was run?
**A.** Its value is 8.3%.

**Q.** For `Cc1ccc(NC(=O)C2CCCN2C(=O)Oc2ccccc2)cc1C` (stereo not drawn), which “hERG current change (%, negative = inhibition) at 1uM” value is on record?
**A.** The value was -1.53%.

**Q.** For `O=C(O)c1ccc2nc(-c3ccccc3)sc2c1`, which “hERG current change (%, negative = inhibition) at 1uM” value is on record?
**A.** Its value is 2.95%.

**Q.** How did the “hERG current change (%, negative = inhibition) at 1uM” value turn out when `CC(C)C(NC(=O)CCN1C(=O)c2ccccc2C1=O)c1ccccc1` (stereo not drawn) was run?
**A.** The value was 16.6%.

**Q.** `CCN1CNC(=S)N(c2cccc(C)c2C)C1` was tested. Which “hERG current change (%, negative = inhibition) at 1uM” value did it give?
**A.** Its value is 0.6%.

**Q.** How did the “hERG current change (%, negative = inhibition) at 1uM” value turn out when `CCCCN(C)C(=O)c1nc2ccccn2c1CN1CCN(c2ncccn2)CC1` was run?
**A.** The value was 6.17%.

**Q.** For `COC(=O)CSc1nnc(CNC(=O)c2cccs2)n1-c1cc(OC)ccc1OC`, which “hERG current change (%, negative = inhibition) at 1uM” value is on record?
**A.** Its value is 1.7%.

**Q.** `CCOn1c(=O)c(-c2ccc(OC)cc2)[n+]([O-])c2ccccc21` was tested. Which “hERG current change (%, negative = inhibition) at 1uM” value did it give?
**A.** Its value is -2.13%.

**Q.** How did the “hERG current change (%, negative = inhibition) at 1uM” value turn out when `Cc1cccc(OCC(=O)Nc2ccc3c(C)cc(=O)oc3c2)c1` was run?
**A.** Its value is 2.78%.

**Q.** With `C=CCn1c(SCC(=O)Nc2ccc(F)cc2F)nc2c([nH]c3ccccc32)c1=O` as the compound, how does the “hERG current change (%, negative = inhibition) at 1uM” value read?
**A.** Its value is 18.9%.

**Q.** Which “hERG current change (%, negative = inhibition) at 1uM” value does the source give for `CN(C(=O)COC(=O)CNC(=O)C1CCCCC1)c1ccccc1` here?
**A.** Its value is 8.7%.

**Q.** For `C=CCSc1nc2c(c(-c3ccsc3)c1C#N)CN(C)CC2`, which “hERG current change (%, negative = inhibition) at 1uM” value is on record?
**A.** Its value is 8.21%.

**Q.** How did the “hERG current change (%, negative = inhibition) at 1uM” value turn out when `COc1ccccc1NC(=O)CN1CCN(C2c3ccccc3-c3ccccc32)CC1` was run?
**A.** The value was 9.42%.

**Q.** For `O=C(Nc1ccccc1F)c1cccc(C(=O)Nc2ccccc2F)c1`, which “hERG current change (%, negative = inhibition) at 1uM” value is on record?
**A.** Its value is 8.21%.

**Q.** Which “hERG current change (%, negative = inhibition) at 1uM” value does the source give for `O=C(N/C(=C/c1ccco1)C(=O)N1CCCCC1)c1cccs1` here?
**A.** Its value is -6.92%.

**Q.** Which “hERG current change (%, negative = inhibition) at 1uM” value does the source give for `O=C(Cn1cnc2c(cnn2-c2ccccc2)c1=O)N1CCCc2ccccc21` here?
**A.** Its value is -13.6%.

**Q.** With `CCN(CC(=O)Nc1c(F)cccc1F)C(=O)CCc1nc2cc(S(=O)(=O)N3CCOCC3)ccc2n1C` as the compound, how does the “hERG current change (%, negative = inhibition) at 1uM” value read?
**A.** The value was 9.44%.

**Q.** Which “hERG current change (%, negative = inhibition) at 1uM” value does the source give for `CC/C(=N\NC(N)=O)c1c(O)[nH]c(=O)[nH]c1=O` here?
**A.** The value was 15.6%.

**Q.** Which “hERG current change (%, negative = inhibition) at 1uM” value does the source give for `Cc1csc(=O)n1CCC(=O)OCC(=O)N(CC(C)C)c1c(N)n(Cc2ccccc2)c(=O)[nH]c1=O` here?
**A.** The value was 11.8%.

**Q.** With `CN(Cc1ccccc1)c1nc(N)c([N+](=O)[O-])c(NCc2ccccc2)n1` as the compound, how does the “hERG current change (%, negative = inhibition) at 1uM” value read?
**A.** Its value is 13.2%.

**Q.** For `O=c1c(-c2ccnn2-c2ccc(F)cc2)cnc2n1CCS2`, which “hERG current change (%, negative = inhibition) at 1uM” value is on record?
**A.** The value was 11.9%.

**Q.** Which “hERG current change (%, negative = inhibition) at 1uM” value does the source give for `Brc1ccc(CNCc2cccs2)cc1` here?
**A.** Its value is -23%.

**Q.** Which “hERG current change (%, negative = inhibition) at 1uM” value does the source give for `CCc1ccc(OCC(=O)NNC(=S)NC(=O)C2CC2)c(Br)c1` here?
**A.** Its value is 8.11%.

**Q.** `CCn1c2ccccc2c2cc(NC(=O)COc3ccccc3)ccc21` was tested. Which “hERG current change (%, negative = inhibition) at 1uM” value did it give?
**A.** The value was 6.78%.

**Q.** For `CC1CN(C(=S)SCC(=O)c2ccc([N+](=O)[O-])cc2)CC(C)O1` (stereo not drawn), which “hERG current change (%, negative = inhibition) at 1uM” value is on record?
**A.** Its value is 5.84%.

**Q.** How did the “hERG current change (%, negative = inhibition) at 1uM” value turn out when `Cc1ccc(S(=O)(=O)N2CCC(C(=O)OCc3ccccc3)CC2)cc1C` was run?
**A.** Its value is 16.1%.

**Q.** Which “hERG current change (%, negative = inhibition) at 1uM” value does the source give for `CCOc1ccc(N(CC(=O)Nc2ccccc2OC)S(C)(=O)=O)cc1` here?
**A.** Its value is 0.0617%.

**Q.** `Fc1ccccc1NC(=S)N1CCC(c2ccccc2)C1` (stereo not drawn) was tested. Which “hERG current change (%, negative = inhibition) at 1uM” value did it give?
**A.** Its value is 9.62%.

**Q.** How did the “hERG current change (%, negative = inhibition) at 1uM” value turn out when `O=C(NCc1cccc(F)c1)C1CCN(S(=O)(=O)Cc2ccccc2)CC1` was run?
**A.** Its value is 9.46%.

**Q.** How did the “hERG current change (%, negative = inhibition) at 1uM” value turn out when `O=C(NC(=O)c1ccccc1Cl)Nc1ccc(-c2cnco2)cc1` was run?
**A.** The value was 4.15%.

**Q.** `CCC(=O)NCc1csc(-c2cccs2)n1` was tested. Which “hERG current change (%, negative = inhibition) at 1uM” value did it give?
**A.** The value was 13.7%.

**Q.** With `O=C(NC(=S)N1CCN(Cc2ccccc2)CC1)c1cccnc1` as the compound, how does the “hERG current change (%, negative = inhibition) at 1uM” value read?
**A.** Its value is 6.51%.

**Q.** Which “hERG current change (%, negative = inhibition) at 1uM” value does the source give for `CCc1nnc(NC(=O)CSc2nc(-c3ccccc3)nc3ccccc23)s1` here?
**A.** The value was 18.8%.

**Q.** Which “hERG current change (%, negative = inhibition) at 1uM” value does the source give for `Cl.O=C(NCCCn1ccnc1)c1ccc(N2CCCCCC2)c([N+](=O)[O-])c1` here?
**A.** Its value is -51.6%.

**Q.** For `O=C(Cn1ncc2c3ccccc3n(Cc3ccc(Cl)cc3)c2c1=O)NCCCN1CCCC1=O`, which “hERG current change (%, negative = inhibition) at 1uM” value is on record?
**A.** Its value is 1.67%.

**Q.** `CN(C)C(=O)CSCc1c(Cl)cccc1Cl` was tested. Which “hERG current change (%, negative = inhibition) at 1uM” value did it give?
**A.** The value was -0.0762%.

**Q.** With `CCCC(C)C(=O)N(Cc1ccccc1)c1ccccn1` (stereo not drawn) as the compound, how does the “hERG current change (%, negative = inhibition) at 1uM” value read?
**A.** Its value is 8.24%.

**Q.** How did the “hERG current change (%, negative = inhibition) at 1uM” value turn out when `OC(c1ccccc1)C1CN(Cc2ccccc2)CCC1(O)c1ccccc1` (stereo not drawn) was run?
**A.** Its value is 8.57%.

**Q.** `CN1C(=O)c2ccc(C(=O)Nc3ccc(Br)cn3)cc2C1=O` was tested. Which “hERG current change (%, negative = inhibition) at 1uM” value did it give?
**A.** Its value is 2.35%.

**Q.** How did the “hERG current change (%, negative = inhibition) at 1uM” value turn out when `COc1ccc(Cl)cc1NC(=O)CC1CCCC1` was run?
**A.** The value was 10.1%.

**Q.** With `COC(=O)Cn1c(=NC(=O)c2cc(OC)c(OC)c(OC)c2)sc2cc(OC)ccc21` as the compound, how does the “hERG current change (%, negative = inhibition) at 1uM” value read?
**A.** Its value is 12%.
